In all, about 420,000 compounds went through this assay and about 64,000 (15%) were called active. Inconclusive results, whose numbers are uncertain, are shown with a selection of clear calls. The call rests on the fitted dose curve; in most records, active means well fitted inhibition curve with a large enough effect; inconclusive means small, poorly fitted or top-dose-only effect; inactive means flat fitted curve, though single readings scatter. Potencies of inconclusive entries are left out as doubtful fits.
test: qHTS for Inhibitors of human tyrosyl-DNA phosphodiesterase 1 (TDP1): qHTS in cells in absence of CPT; settings: DT40 Tdp1-/- hTDP1 cells, no CPT, ATP luminescence, 48 h; series mostly up to 46.2 µM; further: nearly all actives have a fitted effect of over 55% in size
Outline: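 Stably hTDP1-transfected Tdp1-null chicken DT40 cells were treated with library compounds minus camptothecin and grown for at least 48 hr at 37 °C, after which cellular ATP was quantified by luminescence.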
Potency means the concentration at half of the fitted maximal effect; tags describe the fitted curve by direction and shape.

| SMILES | Potency |
| --- | --- |
| CC(C)(C)c1ccc(-c2n[nH]c(=S)n2-c2ccccc2)cc1 | inconclusive [inhibitor, single point] |
| COC(=O)[C@@]1(Cc2ccccc2)[C@H]2C(=O)N(C)C(=O)[C@H]2[C@H]2CN=C(SCc3ccc(C)cc3)N21 | active: 16.4 µM |
| Cc1cc(NC(=O)CCC(=O)N(c2ccccc2C)C(C(=O)NC2CCCC2)c2ccccc2)no1 (stereo not given) | inconclusive [inhibitor, partial curve, poor fit] |
| CCN(c1cc(C)cc(C)c1)S(=O)(=O)c1nnc(NC(=O)c2cccs2)s1 | inconclusive [inhibitor, single point] |
| COc1ccc(C(=O)n2cnc3ccccc32)cc1 | inactive |
| Cc1cccc(NC(=O)c2sccc2-n2cccc2)c1C | inconclusive [inhibitor, single point] |
| CCN(CC(=O)NCc1cccs1)S(=O)(=O)c1c(F)cccc1F | inactive |
| CC(C)(C)OC(=O)NCCCC[C@H](NC(=O)c1nc[nH]c1C(=O)NC(c1ccccc1)c1ccccc1)C(=O)OC(C)(C)C | inconclusive [inhibitor, single point] |
| CCOC(=O)C1=CN(Cc2cccc(Br)c2)S(=O)(=O)NC1C (stereo not given) | inconclusive [inhibitor, single point] |
| Cc1cccc(N=C2NN=C(c3ccccc3F)CS2)c1C | inconclusive [inhibitor, single point] |
| Cc1ccccc1C(=O)O[C@H]1[C@H](Cc2ccccc2)NS(=O)(=O)[C@H]2CC3C=C[C@]12O3 | active: 20 µM |
| COC(=O)c1cc(=O)nc2sc3cc(OC)ccc3n12 | inactive |
| CN(CCc1ccccc1)C(=O)c1cccc(NC(=O)Cc2cccc(NC(=O)C3CCN(C(=O)C4CCCCC4)CC3)c2)c1 | inconclusive [inhibitor, single point] |
| CCOC(=O)c1cnc(SC)nc1Oc1cccc(NS(=O)(=O)c2ccc(Cl)cc2)c1 | inconclusive [inhibitor, single point] |
| CCOC(=O)c1nc(C)sc1-c1ccnn1S(=O)(=O)c1ccc(C)cc1 | inconclusive [inhibitor, single point] |
| OC(c1ccc(Cl)cc1)c1ncc(-c2ccccc2Cl)[nH]1 (stereo not given) | inconclusive [inhibitor, single point] |
| CC(=O)c1ccc(NC(=O)C2CC(=O)N(C(C)C)C2)cc1 (stereo not given) | inactive |
| CCCCCCNS(=O)(=O)c1ccc(Cl)s1 | inconclusive [inhibitor, partial curve] |
| Nc1nc(CN2CCOCC2)cs1 | active: 29.1 µM |
| Cc1cccc(NS(=O)(=O)c2ccc3[nH]c(=O)ccc3c2)c1C | inconclusive [inhibitor, partial curve, poor fit] |
| CN(C)C(=O)CSc1cnc2ccccc2n1 | inconclusive [inhibitor, full curve, poor fit] |
| CCOC1=C2CN(S(=O)(=O)c3ccc(C)cc3)CC[C@@H]2N(S(=O)(=O)c2ccc(C)cc2)[C@H](c2ccccc2)C1 | inactive |
| Cc1ccc(S(=O)(=O)NNC(=S)Nc2ccc(Cl)cc2)cc1 | inactive |

| SMILES | Potency |
| --- | --- |
| COc1ccc(-c2nnc(-c3cccnc3)o2)cc1OC | inconclusive [inhibitor, partial curve] |
| O=C(Nc1cccc(Cl)c1)NC1(C(=O)NCc2cccs2)CCCCC1 | active: 25.9 µM |
| O=C(NC(=S)N1CC=CCC1)c1ccccc1 | inconclusive [inhibitor, single point] |
| CC(C)(C)c1ccc(C(=O)Nc2nonc2-c2nc3ccccc3[nH]2)cc1 | inconclusive [inhibitor, partial curve, poor fit] |
| COc1ccccc1C(=O)NC(=O)COc1cc(Cl)ccc1Cl | inconclusive [inhibitor, partial curve] |
| Cc1ccc(C)c(NC(=O)CC2Sc3ccccc3NC2=O)c1 (stereo not given) | inactive |
| COc1ccc(-c2n[nH]c(=S)n2CC(C)C)cc1 | inactive |
| CCOc1ccc(C(=O)NCC(c2cccs2)N(C)C)cc1OCC (stereo not given) | inactive |
| COc1ccc(C(=O)N/N=C/c2cccc3cccnc23)cc1 | active: 4.61 µM |
| Cc1oc2ccc(O)c(CN(C)Cc3ccccc3)c2c1C(=O)Nc1cccc(C(F)(F)F)c1 | active: 5.17 µM |
| CCOc1ccc(-c2cc(C(=O)Nc3cc(OC)c(OC)c(OC)c3)[nH]n2)c(C)c1 | inconclusive [inhibitor, full curve, poor fit] |
| Cc1ccc(C)c(NC(=S)NCCN(C2CCCCC2)C2CCCC2)c1 | inconclusive [inhibitor, single point] |
| C/C(=N/NC(=O)CNC(=O)/C=C/c1ccco1)c1ccc(Cl)cc1 | inconclusive [inhibitor, partial curve] |
| COc1ccc(C(=O)c2cn(CC(=O)Nc3ccc4c(c3)OCCO4)c3ccc(OC)cc3c2=O)cc1 | inconclusive [inhibitor, single point] |
| COc1ccc(OCCC(=O)OCC(=O)Nc2cccc(S(=O)(=O)N3CCCCC3)c2)cc1 | inconclusive [inhibitor, single point] |
| O=C(O)COc1ccccc1/C=N/NC(=O)CSc1nc2ccccc2c(=O)n1-c1ccc(Cl)cc1 | inactive |
| Cc1ccc(Cn2ccc(NC(=O)c3cc(CC(C)C)on3)n2)cc1 | active: 20.6 µM |
| COc1ccc(CC(=O)NNS(=O)(=O)c2ccccc2[N+](=O)[O-])cc1OC | inactive |
| Cc1ccc(NC(=S)NCc2ccccc2)cc1C | inconclusive [inhibitor, partial curve] |
| Cc1[nH]c2ccccc2c1C(c1ccccn1)N1CCC(C(N)=O)CC1 (stereo not given) | active: 18.4 µM |
| COC(=O)c1ccc(COC(=O)C2CCN(S(=O)(=O)c3c(Cl)cccc3Cl)CC2)o1 | inactive |
| O=C(Cn1c(=O)nc(-c2ccccc2)c2ccccc21)Nc1ccc(Cl)c(C(F)(F)F)c1 | inactive |

Reference: PubChem BioAssay AID686978 (National Center for Advancing Translational Sciences (NCATS), 2013)
